Screen size: about 94,000 compounds; about 4,000 (4.3%) were called active. Inconclusive results, whose numbers are uncertain, are shown with a selection of clear calls. The call rests on the fitted dose curve; in most records, active means well fitted inhibition curve with a large enough effect; inconclusive means small, poorly fitted or top-dose-only effect; inactive means no such curve, though single readings can be large or run the other way. Where the call is inconclusive, the potency comes from a doubtful curve fit.
test: Cytotoxic Profiling in NIH 3T3 Cell Line of Diverse Libraries Using Quantitative High-Throughput Screening; conditions: NIH 3T3 viability, CellTiter-Glo ATP luminescence, 48-72 h; activity change, negative = cytotoxicity: at 96.7 µM (top of the series) unless noted; series mostly up to 96.7 µM; further: nearly all actives have a fitted effect of over 55% in size
Outline: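 ATP-dependent luminescence (CellTiter-Glo) served as the viability signal for NIH 3T3 cells treated with compound for 48 or 72 hr at 37 °C.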
On the % scale 0 is the no-effect control and ±100 the full control effect; potency means the concentration at half of the fitted maximal effect; tags describe the fitted curve by direction and shape.

**Q.** For `COc1ccccc1Nc1ccnc(N2CCC(C(=O)NCCSC)CC2)n1`, which Potency is on record?
**A.** active: 39.8 µM

**Q.** For `O=[N+]([O-])c1ccc(CN2C[C@H](O)C[C@H]2c2nc(-c3ccc(C(F)(F)F)cc3)no2)cc1`, which Potency is on record?
**A.** inconclusive: 100 µM [inhibitor, partial curve, poor fit]

**Q.** With `Cc1cnc(CCNC(=O)CCc2nc3ccccc3s2)n1C1CC1` as the compound, how does the “activity change, negative = cytotoxicity” value read?
**A.** inactive: -14.2%

**Q.** Which Potency does the source give for `O=C(c1[nH]ncc1Cl)N1CCCC(CCc2c(F)cccc2F)C1` (configuration not stated) here?
**A.** inconclusive: 17.8 µM [inhibitor, full curve, poor fit]

**Q.** For `O=C1CCC2(CNC(=O)NCCc3ccccc3)CCCC=C2N1` (configuration not stated), which “activity change, negative = cytotoxicity” value is on record?
**A.** inactive: -11.9%

**Q.** For `Cc1ccc(-c2ccccc2CN2CCN(C(=O)c3ccccc3C)CC2)cc1Cl`, which Potency is on record?
**A.** inconclusive: 44.7 µM [inhibitor, partial curve, poor fit]

**Q.** Which Potency does the source give for `COc1ccc(-c2cccc(C(=O)N3CCN(C(=O)c4cccc(Cl)c4)CC3)c2)nn1` here?
**A.** inconclusive: 5.01 µM [inhibitor, partial curve, poor fit]

**Q.** Which Potency does the source give for `CCN1CCN(CC(O)COc2cccc(CNC3(c4ccccc4)CC3)c2)CC1` (configuration not stated) here?
**A.** inconclusive: 89.1 µM [inhibitor, single point]

**Q.** With `Cc1nn2c(c1-c1ccccc1-c1ccccc1)N(C(=O)c1cnccn1)CCC2` as the compound, how does the Potency read?
**A.** inconclusive: 100 µM [inhibitor, partial curve, poor fit]

**Q.** For `O=C(Cn1ccn2nc(-c3ccccc3)c(CO)c2c1=O)Nc1ccc2c(c1)OCO2`, which Potency is on record?
**A.** inconclusive: 70.8 µM [inhibitor, single point]

**Q.** For `CCCc1ccc(S(=O)(=O)N(C)CC2CCOC2)cc1` (configuration not stated), which “activity change, negative = cytotoxicity” value is on record?
**A.** inactive: -26.8%

**Q.** With `COc1ccc(Nc2ccnc(N3CCC(NC(=O)c4ccc(OC)cc4)CC3)n2)cc1` as the compound, how does the Potency read?
**A.** inconclusive: 14.1 µM [inhibitor, full curve, poor fit]

**Q.** Which “activity change, negative = cytotoxicity” value does the source give for `CN(CCn1ccnc1-c1ccc(CO)o1)S(C)(=O)=O` here?
**A.** inactive: 3.63%

**Q.** With `Cc1oc2c(c1C(=O)NCCCN1CCCCC1)CN(Cc1ccccc1)CC2` as the compound, how does the “activity change, negative = cytotoxicity” value read?
**A.** inactive: -28.2%

**Q.** Which Potency does the source give for `COc1ccc(C(=O)N2CCCC(c3noc(COc4ccccc4)n3)C2)cc1` (configuration not stated) here?
**A.** inconclusive: 50.1 µM [inhibitor, partial curve, poor fit]

**Q.** For `C[S+](=O)([O-])NC1CCN(c2nc3ncccc3o2)C1` (configuration not stated), which “activity change, negative = cytotoxicity” value is on record?
**A.** inactive: -13.4% [at 138 µM]

**Q.** With `Cn1ncc2c(C(=O)NCc3ccc(C(F)(F)F)cc3)cc(-c3ccc(F)cc3)nc21` as the compound, how does the Potency read?
**A.** active: 22.4 µM

**Q.** Which Potency does the source give for `C#CCNC(=O)C1CCCN(Cc2cccc(-c3ccccc3OC)c2)C1` (configuration not stated) here?
**A.** inconclusive: 39.8 µM [inhibitor, partial curve]

**Q.** For `O=C(NCc1ccccc1)N1C[C@@H](CO)[C@@H]2Oc3c(F)cccc3[C@@H]21`, which “activity change, negative = cytotoxicity” value is on record?
**A.** inactive: -29.2%

**Q.** Which “outcome” value does the source give for `COc1ccc(CNC[C@H]2O[C@H](Cc3cc(CN4CCOCC4)on3)CC[C@@H]2O)cc1` here?
**A.** inactive [at 138 µM]

**Q.** For `O=C(Nc1ccc(F)cc1)OC1CN(Cc2ccco2)C(=O)CN(C(=O)c2cccs2)C1` (configuration not stated), which “activity change, negative = cytotoxicity” value is on record?
**A.** inactive: -17.9%

**Q.** For `COc1cccc(-c2cc(C(=O)N3CCC(c4ccccc4)CC3)c3cnn(C)c3n2)c1`, which Potency is on record?
**A.** inconclusive: 25.1 µM [inhibitor, partial curve]

**Q.** With `COc1ccc(C2Cn3nnc(-c4nc(-c5ccccc5F)no4)c3CO2)cc1` (configuration not stated) as the compound, how does the “outcome” value read?
**A.** inactive

**Q.** Which Potency does the source give for `O=C(NC[C@H]1O[C@@H](CO)[C@@H](O)[C@H]1N1CCN(c2cccc(C(F)(F)F)c2)CC1)c1ccc(C(F)(F)F)cc1` here?
**A.** inconclusive: 44.7 µM [inhibitor, partial curve, poor fit]

**Q.** Which “activity change, negative = cytotoxicity” value does the source give for `CCOCCCNC(=O)c1cc(-c2ccccc2C(F)(F)F)nc2c1cnn2C` here?
**A.** inactive: -15.9%

**Q.** With `COc1ccc2nc3n(c2c1)[C@@H](CNC1CCOCC1)COC3` as the compound, how does the Potency read?
**A.** inconclusive: 100 µM [inhibitor, single point]

**Q.** Which Potency does the source give for `Cc1ccsc1CN(Cc1cn(-c2ccccc2)nn1)C1CC1` here?
**A.** inconclusive: 56.2 µM [inhibitor, partial curve, poor fit]

**Q.** Which “activity change, negative = cytotoxicity” value does the source give for `Cc1ccc2c(c1)c(C(=O)N1CCC3(CCNC(=O)CC3)CC1)nn2C` here?
**A.** inactive: -3.96%

**Q.** For `COCCn1c(C)nnc1-c1cc(Nc2cccc(OC)c2)ccn1`, which Potency is on record?
**A.** inconclusive: 70.8 µM [inhibitor, partial curve, poor fit]

**Q.** Which “outcome” value does the source give for `CCNC(=O)N1CCCC1c1noc(CCC(=O)O)n1` (configuration not stated) here?
**A.** inactive

**Q.** With `Cn1ncc2c(C(=O)NCc3cccc(F)c3)cc(-c3ccc(Cl)cc3)nc21` as the compound, how does the Potency read?
**A.** inconclusive: 50.1 µM [inhibitor, partial curve, poor fit]

**Q.** For `O=C(Cc1c[nH]c2ccccc12)N1CCc2c(nc(-c3ccc(F)cc3)[nH]c2=O)C1`, which Potency is on record?
**A.** inconclusive: 44.7 µM [inhibitor, partial curve, poor fit]

**Q.** For `Cc1ncsc1CN1CC(N(Cc2ccccc2)C2CCOCC2)C1`, which “activity change, negative = cytotoxicity” value is on record?
**A.** inactive: -19.4%

**Q.** With `O=C(Nc1cccc(C(F)(F)F)c1)N[C@H]1CO[C@H]2[C@@H]1OC[C@@H]2n1nnnc1-c1ccc2c(c1)OCO2` as the compound, how does the Potency read?
**A.** active: 31.6 µM

**Q.** With `COC(=O)[C@@H]1C[C@H](NC(=O)c2cc(OC)nc(OC)n2)CN1C` as the compound, how does the “activity change, negative = cytotoxicity” value read?
**A.** inactive: 2.76%

**Q.** Which “activity change, negative = cytotoxicity” value does the source give for `O=C(c1ccco1)N1CCC(c2n[nH]c(=O)n2-c2ccccc2)CC1` here?
**A.** inactive: 1.93%

**Q.** With `O=C(NCCOc1ccccc1)c1cnc2n1CCN(Cc1ccncc1Cl)CC2` as the compound, how does the Potency read?
**A.** inconclusive: 100 µM [inhibitor, partial curve, poor fit]

**Q.** Which “activity change, negative = cytotoxicity” value does the source give for `COC(=O)N[C@@H]1C[C@H]2C[C@@H](C(C)C)OC[C@@]2(c2ccccc2)C1` here?
**A.** inactive: -28.2%

**Q.** With `O=C(c1cc(Cl)ccc1F)N1CCN(c2cc(-c3ccccc3)[nH]n2)CC1` as the compound, how does the Potency read?
**A.** inconclusive: 44.7 µM [inhibitor, partial curve, poor fit]

**Q.** Which Potency does the source give for `CC(=O)NC1(C)CCCN(Cc2cc(-c3cccc(N(C)C)c3)cs2)C1` (configuration not stated) here?
**A.** inconclusive: 56.2 µM [inhibitor, partial curve, poor fit]

**Q.** Which Potency does the source give for `O=c1cc(N2CCOCC2)oc2c(-c3ccncc3)nccc12` here?
**A.** active: 22.4 µM

**Q.** For `COc1ccc(Cn2c(=O)c(C(=O)NCc3ccccc3)nc3cccnc32)cc1`, which Potency is on record?
**A.** inconclusive: 39.8 µM [inhibitor, partial curve, poor fit]

**Q.** For `COc1ccc(C2(C(=O)NCc3ccc(C(F)(F)F)cc3)CCOCC2)cc1`, which “activity change, negative = cytotoxicity” value is on record?
**A.** inactive: -23.8%

**Q.** Which “activity change, negative = cytotoxicity” value does the source give for `CN(C(=O)Cn1nc2n(c1=O)CCCCC2)C1CCCCC1` here?
**A.** inactive: -5.16%

**Q.** For `Cn1ncc(N2CCC(CNC(=O)c3cccc(-n4cnnc4)c3)C2)cc1=O` (configuration not stated), which “outcome” value is on record?
**A.** inactive

**Q.** With `O=C(NCCCN1CCOCC1)c1c(OCC2CC2)cc(=O)n2c1CCCCC2` as the compound, how does the “outcome” value read?
**A.** inactive

**Q.** With `CC(=O)N1C[C@@H]2CCCN3CCC[C@@H]([C@H]23)[C@H]1CCCC(=O)NCc1ccc(N2CCN(C)CC2)cc1` as the compound, how does the “outcome” value read?
**A.** inactive

**Q.** With `COCCNC(=O)C[C@@H]1C[C@H]2O[C@H](CN(C)C)[C@@H](O)[C@H]2O1` as the compound, how does the “activity change, negative = cytotoxicity” value read?
**A.** inactive: 0.245% [at 174 µM]

**Q.** For `COc1ccccc1-n1cc(-c2ccnc(N3CCCN(C(C)=O)CC3)n2)cn1`, which Potency is on record?
**A.** inconclusive: 56.2 µM [inhibitor, partial curve, poor fit]

**Q.** Which Potency does the source give for `CN(Cc1cccnc1)c1nc2c(c(=O)[nH]1)CCN(Cc1ccc(C(F)(F)F)cc1)CC2` here?
**A.** inconclusive: 39.8 µM [inhibitor, partial curve]

**Q.** For `O=C(NCCOc1ccccc1)c1nc2c(o1)CCN(Cc1ccsc1)CC2`, which Potency is on record?
**A.** inconclusive: 79.4 µM [inhibitor, partial curve, poor fit]

**Q.** Which Potency does the source give for `COc1ccc(-c2ccnc(N[C@H]3CO[C@H]4[C@@H]3OC[C@H]4OC(=O)Nc3ccc(C(C)(C)C)cc3)n2)cc1` here?
**A.** inconclusive: 20 µM [inhibitor, full curve, poor fit]

**Q.** For `CC(C)N1CCC2(CC1)CN(C(=O)c1cccnc1)Cc1ccccc1O2`, which “activity change, negative = cytotoxicity” value is on record?
**A.** inactive: -21.2%

**Q.** Which Potency does the source give for `O=C(Nc1ccccn1)[C@@H]1C[C@@H](c2ccc(F)cc2)N(Cc2ccccc2)C1` here?
**A.** inconclusive: 63.1 µM [inhibitor, partial curve, poor fit]

**Q.** Which Potency does the source give for `O=Cc1cccc(Oc2ncnc3ccccc23)c1` here?
**A.** inconclusive: 100 µM [inhibitor, partial curve, poor fit]

**Q.** For `COc1ccc(CN2C[C@@H]3C(=O)N(Cc4ccc5c(c4)OCO5)C(=O)[C@@H]3C2)cc1OC`, which “activity change, negative = cytotoxicity” value is on record?
**A.** inactive: -33.9%

**Q.** With `Cc1nc(-c2ccc(F)cc2)n(CC(=O)Nc2ccc(F)c(Cl)c2)c(=O)c1CCO` as the compound, how does the Potency read?
**A.** inconclusive: 3.16 µM [inhibitor, full curve, poor fit]

**Q.** Which Potency does the source give for `COc1ccccc1-c1ccc(C(=O)N2CCC(NC(=O)NC3CCCC3)CC2)cc1` here?
**A.** inconclusive: 44.7 µM [inhibitor, partial curve, poor fit]

**Q.** With `Cc1c(Cl)cccc1NC(=O)c1cc2n(n1)CC(c1ccc(Cl)cc1)OC2` (configuration not stated) as the compound, how does the Potency read?
**A.** inconclusive: 44.7 µM [inhibitor, partial curve, poor fit]

**Q.** With `O=C(c1cccs1)N1CCN(c2cc(-c3cccs3)[nH]n2)CC1` as the compound, how does the Potency read?
**A.** inconclusive: 14.1 µM [inhibitor, full curve]

**Q.** Which Potency does the source give for `O=C(N[C@@H]1CCC[C@@H]1C(=O)N1CCN(c2cccc(Cl)c2)CC1)c1ccncc1` here?
**A.** inconclusive: 70.8 µM [inhibitor, partial curve, poor fit]

**Q.** For `CCc1cc(=O)n(CC(=O)Nc2ccccc2OC)c(-c2ccccc2)n1`, which Potency is on record?
**A.** inconclusive: 70.8 µM [inhibitor, single point]

**Q.** Which “activity change, negative = cytotoxicity” value does the source give for `CN(C(=O)CCc1ccc2c(c1)OCO2)C1CCCN(C2Cc3ccccc3C2)C1` (configuration not stated) here?
**A.** inactive: -25.2%

**Q.** With `COCC1CN(C2CCC2)CC12CCN(Cc1cnn(C(C)C)c1)CC2` (configuration not stated) as the compound, how does the Potency read?
**A.** inconclusive: 50.1 µM [inhibitor, partial curve, poor fit]

**Q.** With `COc1cccc(-n2cc(CN(C)Cc3cn(-c4ccccc4)nn3)cn2)c1` as the compound, how does the Potency read?
**A.** inconclusive: 44.7 µM [inhibitor, partial curve, poor fit]

**Q.** With `O=C(c1ccc(-c2cccc(O)c2)nc1)N1CCC(CCc2ccccc2)CC1` as the compound, how does the Potency read?
**A.** inconclusive: 79.4 µM [inhibitor, partial curve, poor fit]

**Q.** Which Potency does the source give for `Cn1ncc2c(C(=O)NCc3cccs3)cc(-c3ccc(C(F)(F)F)cc3)nc21` here?
**A.** inconclusive: 20 µM [inhibitor, full curve]
